Measured values as given in PubChem BioAssay AID938 (National Center for Advancing Translational Sciences (NCATS), 2007).
Out of some 73,000 compounds screened, about 1,800 (2.5%) were called active. Inconclusive means that the source gave no clear call. Such entries were picked first, then a sample of the others. Calls follow the shape of the dose curve; as a rule, active = well fitted activation curve with a large enough effect; inconclusive = small, poorly fitted or top-dose-only effect; inactive = no such curve, though single readings can be large or run the other way. No potency is given beside an inconclusive call; the fits are too rough.

assay: qHTS Assay for Agonists of the Thyroid Stimulating Hormone Receptor: Activators of Intracellular cAMP Concentrations in Parental HEK 293; conditions: parental HEK293 CNG cAMP sensor, membrane potential fluorescence; activation: at 57.1 µM (top of the series) unless noted; also: nearly all actives have a fitted effect of over 55% in size; as to activation: % of control where 0% means no effect
In short: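 Parental HEK 293 cells stably expressing a cAMP-gated CNG channel were loaded with membrane potential dye containing 100 uM RO 20-1724 for 60 min. Compound added for 30 min; depolarization read as fluorescence intensity at 590 nm.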
Potency is read from the fitted curve at half-maximal effect; tags tell the direction and shape of the fitted curve.

SMILES	Potency	activation
Cc1cccc2cc(C(c3nnnn3Cc3ccc4c(c3)OCO4)N3CCCC3)c(=O)[nH]c12 (configuration not stated)	inconclusive [activator, single point]	–
Clc1ccccc1C(c1ccccc1)(c1ccccc1)n1ccnc1	inactive	–
CCCCn1c(SCC2CCCCO2)nc2cc(S(N)(=O)=O)ccc21 (configuration not stated)	inconclusive [activator, single point]	–
COc1ccc2[nH]cc(CCNc3ncnc4ccc(-c5cccc(C#N)c5)cc34)c2c1	–	inactive: -36.5%
NS(=O)(=O)c1ccc(NC(=O)Nc2ccccc2F)cc1	–	inactive: 10.7% [at 11.4 µM]
CN1CCCN(C(=O)c2cc(=O)[nH]c3ccccc23)c2nc3ccccc3nc21	inconclusive [activator, partial curve]	–
CCOC(=O)C1CCN(c2nc(-c3ccccc3)nc3c2oc2ccccc23)CC1	–	inactive: 20%
COc1ccc(-c2nc3ccccc3o2)cc1NC(=O)c1ccc(Br)o1	inconclusive [activator, full curve]	–
CC(C)C(c1nnnn1Cc1ccc(F)cc1)N1CCSCC1 (configuration not stated)	inconclusive [activator, partial curve]	–
COc1ccc(CNc2ccnc(-c3ccccc3C(F)(F)F)n2)c(OC)c1	active: 7.94 µM	–
Cc1ccc(-c2nnn(CC(=O)N(Cc3cccs3)C(C(=O)NC(C)(C)C)c3ccco3)n2)o1 (configuration not stated)	active: 1 µM	–
COC(=O)c1c(NC(=O)c2nc3ccccc3s2)sc2c1CCN(C(C)=O)C2	–	inactive: 6.49%
COc1cc(OC)c(-c2nn3c(-c4ccco4)nnc3s2)cc1OC	–	inactive: -1.85%
CC1(C)CC(=O)c2cc(C(=O)NCc3ccco3)c(=O)n(-c3ccc(Cl)cc3)c2C1	inconclusive [activator, single point]	–
C[C@@H](C1=C(CCN(C)C)Cc2ccccc21)c1ccccn1	inconclusive [activator, partial curve, poor fit]	–
COc1ccccc1N1CCN(CC(=O)Nc2ccc(C)c(F)c2)CC1	inconclusive [activator, single point]	–
COc1ccc2nc(N3CCCCC3)c(C#N)cc2c1	–	inactive: 5.17%
CC#CCOCC/C=C1/c2ccccc2C(OC)C1C (configuration not stated)	–	inactive: 10.6% [at 11.4 µM]
COC(=O)c1cc2occc2n1CC(=O)Nc1ccc(OC)c(OC)c1OC	inconclusive [activator, full curve, poor fit]	–
COC(=O)[C@@]1(Cc2ccccc2)[C@H]2c3cc(C(=O)N(C)C)n(Cc4ccccn4)c3C[C@H]2CN1C(=O)c1ccccc1	inconclusive [activator, partial curve]	–
CC(C)[C@@H](CC(=O)N[C@@H]1CCNC[C@H]1C(=O)N[C@H](CC(=O)N[C@@H](CCC(=O)O)CC(=O)O)Cc1c[nH]c2ccccc12)NC(=O)C[C@H](Cc1c[nH]c2ccccc12)NC(=O)[C@@H]1CNCC[C@H]1N	inconclusive [activator, single point]	–
c1ccc(Cn2c(SCc3nc4ccccc4s3)nnc2-c2ccco2)cc1	inconclusive [activator, partial curve]	–
O=C(CSc1ncnc2c1oc1ccccc12)OCc1ccccc1	inconclusive [activator, partial curve]	–

SMILES	Potency	activation
COC(=O)c1cc(OC)c(OC)cc1NC(=O)CSc1nnnn1Cc1ccccc1	inconclusive [activator, single point]	–
CCOC(=O)C1=C(C)NC(=O)NC1c1ccc(C)o1 (configuration not stated)	–	inactive: -2.75%
Clc1ccc([C@H](Cn2ccnc2)OCc2c(Cl)cccc2Cl)c(Cl)c1	inconclusive [activator, single point]	–
Cc1cc(N2CCN(S(=O)(=O)c3ccc(Cl)cc3)CC2)c2ccccc2n1	inconclusive [activator, partial curve]	–
CCCn1c(SCC(=O)c2cc(OC)ccc2OC)nnc1-c1ccco1	inconclusive [activator, partial curve]	–
O=C(COc1ccc2ccc(=O)oc2c1)Nc1ccc2c(c1)OCCO2	–	inactive: -6.72%
COC(=O)c1sccc1NC(=O)C1CC=CCC1C(=O)O (configuration not stated)	inconclusive [activator, partial curve, poor fit]	–
CCOC(=O)N1CCN(C(=O)CSCC(=O)N=c2sc3ccccc3n2C)CC1	inconclusive [activator, single point]	–
Cc1c(C(=O)OCC(=O)c2ccc3c(c2)OCCO3)oc2ccccc12	inconclusive [activator, partial curve]	–
COc1ccc(N=c2oc3cc(O)ccc3cc2C(=O)NCC2CCCO2)c(OC)c1 (configuration not stated)	inconclusive [activator, full curve]	–
Cc1cc(C)nc(SCc2nnc(SCc3ccccc3Cl)o2)n1	active: 20 µM	–
COc1ccc(S(=O)(=O)N(Cc2cccs2)C2CCCC2)cc1	inconclusive [activator, partial curve]	–
O=C(c1cc(-c2ccncc2)nc2ccc(Br)cc12)N1CCN(c2ccccn2)CC1	inconclusive [activator, partial curve]	–
COC(=O)CSc1nnc(-c2cccnc2)n1-c1cccc(OC)c1	inconclusive [activator, single point]	–
CC(C)COC(=O)COc1cc(Cl)c(Cl)cc1Cl	inconclusive [activator, single point]	–
Cc1cc(C(=O)CSc2nnc(-c3ccccc3)n2Cc2ccc3c(c2)OCO3)c(C)n1C	inconclusive [activator, single point]	–
O=C(Oc1ccccc1)N1CCC2(CCCN(c3ccccn3)C2)CC1	active: 20 µM	–
CCOc1ccc(S(=O)(=O)NCc2ccco2)c2ccccc12	inconclusive [activator, partial curve]	–
CCSC1=NC(=O)/C(=C2/C=Cc3ccccc3N2CC)S1	–	inactive: -19.3%
O=C1CCCC=C1[C@@H](O)CCOC(c1ccccc1)(c1ccccc1)c1ccccc1	inconclusive [activator, single point]	–
O=C(OCC(=O)N1CCN(C(=O)c2ccco2)CC1)c1ccccc1OCc1ccc(Cl)cc1	active: 25.1 µM	–
CC1=C(C#N)C(Nc2cccc(C)n2)(C(F)(F)F)C(=O)N1 (configuration not stated)	inconclusive [activator, single point]	–
CCCC(=O)N(Cc1cc2cc(C)ccc2[nH]c1=O)c1ccccc1OC	inconclusive [activator, full curve]	–

SMILES	Potency	activation
Cn1cccc1C(=O)N1CCC[C@@]2(CCN(c3ccccc3)C2)C1	–	inactive: 25.3%
CCSC1=C(C#N)C2(CCCCC2)C(C#N)=C(N)N1	–	inactive: -9.19%
CCOC(=O)CNc1ncnc2nc[nH]c12	inconclusive [activator, partial curve]	–
O=C(CSc1nc(-c2ccco2)cc(C(F)(F)F)n1)Nc1ccc2c(c1)OCO2	inconclusive [activator, partial curve]	–
CC(C)CSc1nc2c(c(=O)[nH]c(=O)n2C)n1CC(O)COc1cccc2ccccc12 (configuration not stated)	inconclusive [activator, single point]	–
Cc1ncc(CN=Cc2ccc(Cl)cc2)c(N)n1	–	inactive: -6.21% [at 11.4 µM]
N#Cc1ccc(CN2CCCC3(CCNCC3)C2)cc1	inconclusive [activator, single point]	–
CN(CCC(=O)O)S(=O)(=O)c1ccccc1	–	inactive: 6.78% [at 11.4 µM]
COc1cccc(NS(=O)(=O)c2c(C)cc(C)cc2C)c1	inconclusive [activator, single point]	–
C(=C\c1ccccc1)/CSc1nnc(-c2ccncc2)n1Cc1ccco1	inconclusive [activator, partial curve, poor fit]	–
COC(=O)[C@@]1(Cc2ccccc2)[C@H]2c3cc(C(=O)N4CCCC4)n(Cc4ccc(C)o4)c3C[C@H]2CN1C(=O)c1ccccc1	active: 1.58 µM	–
O=c1[nH]c(CN2CCN(c3ccccc3Cl)CC2)nc2ccsc12	inconclusive [activator, single point]	–
CCNc1ccc(C(=O)OCC)cc1NC(=O)c1cccc(S(=O)(=O)N2CCOCC2)c1	inconclusive [activator, single point]	–
O=C(c1cnccn1)N1CCC2(CCCN(c3cccc(-c4ccccc4)c3)C2)CC1	inconclusive [activator, partial curve]	–
CCn1c(C(=O)N2CCc3ccccc3C2)cc2sccc21	inconclusive [activator, partial curve]	–
Cc1ccc(-c2nn3c(-c4ccco4)nnc3c3ccccc23)cc1S(=O)(=O)N1CCOCC1	inconclusive [activator, partial curve]	–
CCn1c(SCc2cccc(C(F)(F)F)c2)nnc1-c1ccco1	inconclusive [activator, partial curve]	–
CC1(C)CC(=O)C2=C(C1)OC(N)=C(C#N)C2C1CC=CCC1 (configuration not stated)	–	inactive: 21.4%
CCOC(=O)C1CCCN(C(=O)C2c3ccccc3Oc3ccccc32)C1 (configuration not stated)	inconclusive [activator, single point]	–
CCOc1ccc(CCNC(=O)Cn2c(-c3nonc3N)nc3ccccc32)cc1OCC	inconclusive [activator, full curve]	–
N#CCCn1c(=O)c(-c2ccccc2)nc2cnc(N3CCOCC3)nc21	–	inactive: 12.3%
